Structures can show the parent of a compound that is named as a salt. In all, about 1,900 compounds were measured (“cell viability of compound + 1 nM pemigatinib relative to pemigatinib-only (DMSO) wells”: median about 0.95, lowest 2% from about 0.22 on). The list shows a part of the results.
What follows are compounds tested on PDC-DUC18828 (assay: cell viability of compound + 1 nM pemigatinib relative to pemigatinib-only (DMSO) wells (fraction); PDC-DUC18828 is a patient-derived cholangiocarcinoma cell line; higher = less growth inhibition). Conditions: first compound 1 µM; pemigatinib concentration 1 nM; 72 h.
Method: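 Selleck Bioactive library screen in the patient-derived FGFR2 fusion-positive ICC cell line PDC-DUC18828 (500 cells/well). Each compound was tested at 1 uM with 1 nM pemigatinib, in triplicate, for 72 h. Viability was read by CellTiter-Glo and normalised to plate DMSO controls. Value is the paper's averaged normalised viability.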

SMILES	cell viability
CCS(=O)(=O)N1CC(CC#N)(n2cc(-c3ncnc4[nH]ccc34)cn2)C1 + CCN1C(=O)N(c2c(F)c(OC)cc(OC)c2F)Cc2cnc3[nH]c(CN4CCOCC4)cc3c21 [pemigatinib]	0.912
O=C(O)CCc1ccc(NCc2cccc(Oc3ccccc3)c2)cc1 + CCN1C(=O)N(c2c(F)c(OC)cc(OC)c2F)Cc2cnc3[nH]c(CN4CCOCC4)cc3c21 [pemigatinib]	1.03
O=C(c1ccc(F)cc1)C1CCN(CCn2c(=O)[nH]c3ccccc3c2=O)CC1 [Ketanserin] + CCN1C(=O)N(c2c(F)c(OC)cc(OC)c2F)Cc2cnc3[nH]c(CN4CCOCC4)cc3c21 [pemigatinib]	0.969
NC(=O)Nc1cc(-c2cccc(F)c2)sc1C(=O)N[C@H]1CCCNC1 + CCN1C(=O)N(c2c(F)c(OC)cc(OC)c2F)Cc2cnc3[nH]c(CN4CCOCC4)cc3c21 [pemigatinib]	0.51
C[C@H]1[C@H](C)CC[C@]2(C(=O)O)CC[C@]3(C)C(=CC[C@@H]4[C@@]5(C)CC[C@H](O)C(C)(C)[C@@H]5CC[C@]43C)[C@H]12 [Ursolic Acid] + CCN1C(=O)N(c2c(F)c(OC)cc(OC)c2F)Cc2cnc3[nH]c(CN4CCOCC4)cc3c21 [pemigatinib]	0.964
Nc1nccc(Oc2ccc(NC(=O)c3c[nH]cc(-c4ccc(F)cc4)c3=O)cc2F)c1Cl + CCN1C(=O)N(c2c(F)c(OC)cc(OC)c2F)Cc2cnc3[nH]c(CN4CCOCC4)cc3c21 [pemigatinib]	0.989
C[C@H]1CO[C@@H]2Cn3cc(C(=O)NCc4ccc(F)cc4F)c(=O)c(O)c3C(=O)N12 + CCN1C(=O)N(c2c(F)c(OC)cc(OC)c2F)Cc2cnc3[nH]c(CN4CCOCC4)cc3c21 [pemigatinib]	1.03
CC1(C)O[C@@H]2C[C@H]3[C@@H]4C[C@H](F)C5=CC(=O)C=C[C@]5(C)[C@@]4(F)[C@@H](O)C[C@]3(C)[C@]2(C(=O)CO)O1 [Fluocinolone Acetonide] + CCN1C(=O)N(c2c(F)c(OC)cc(OC)c2F)Cc2cnc3[nH]c(CN4CCOCC4)cc3c21 [pemigatinib]	0.867
Cc1cc(C)nc(NS(=O)(=O)c2ccc(N)cc2)n1 [Sulfamethazine] + CCN1C(=O)N(c2c(F)c(OC)cc(OC)c2F)Cc2cnc3[nH]c(CN4CCOCC4)cc3c21 [pemigatinib]	0.928
CC(C)(Oc1ccc(Cl)cc1)C(=O)OCCOC(=O)c1cccnc1 [Etofibrate] + CCN1C(=O)N(c2c(F)c(OC)cc(OC)c2F)Cc2cnc3[nH]c(CN4CCOCC4)cc3c21 [pemigatinib]	0.905
CC[C@H](NC(=O)[C@H](C)NC)C(=O)N1C[C@@H](O)C[C@H]1Cc1c(-c2[nH]c3cc(F)ccc3c2C[C@@H]2C[C@H](O)CN2C(=O)[C@H](CC)NC(=O)[C@H](C)NC)[nH]c2cc(F)ccc12 [Birinapant] + CCN1C(=O)N(c2c(F)c(OC)cc(OC)c2F)Cc2cnc3[nH]c(CN4CCOCC4)cc3c21 [pemigatinib]	0.847
CC(C)N(CC[C@H](c1ccccc1)c1cc(CO)ccc1O)C(C)C + CCN1C(=O)N(c2c(F)c(OC)cc(OC)c2F)Cc2cnc3[nH]c(CN4CCOCC4)cc3c21 [pemigatinib]	1
CN1CCN2c3ncccc3Cc3ccccc3C2C1 (configuration not stated) [Mirtazapine] + CCN1C(=O)N(c2c(F)c(OC)cc(OC)c2F)Cc2cnc3[nH]c(CN4CCOCC4)cc3c21 [pemigatinib]	1.04
CC(C)[C@H](N)C(=O)OCCOCn1cnc2c(=O)nc(N)[nH]c21 [Valaciclovir HCl] + CCN1C(=O)N(c2c(F)c(OC)cc(OC)c2F)Cc2cnc3[nH]c(CN4CCOCC4)cc3c21 [pemigatinib]	0.988
CC(C(O)c1ccc(O)cc1)N1CCC(Cc2ccccc2)CC1 (configuration not stated) [Ifenprodil Tartrate] + CCN1C(=O)N(c2c(F)c(OC)cc(OC)c2F)Cc2cnc3[nH]c(CN4CCOCC4)cc3c21 [pemigatinib]	1
C[C@@H]1C/C=C/C=C/C=C/C=C/[C@H](O[C@@H]2O[C@H](C)[C@@H](O)[C@H](N)[C@@H]2O)C[C@@H]2O[C@](O)(C[C@@H](O)C[C@H]3O[C@@H]3/C=C/C(=O)O1)C[C@H](O)[C@H]2C(=O)O [Natamycin] + CCN1C(=O)N(c2c(F)c(OC)cc(OC)c2F)Cc2cnc3[nH]c(CN4CCOCC4)cc3c21 [pemigatinib]	0.975
CC1=NN(c2ccc(C)c(C)c2)C(=O)/C1=N\Nc1cccc(-c2cccc(C(=O)O)c2)c1O [Eltrombopag Olamine] + CCN1C(=O)N(c2c(F)c(OC)cc(OC)c2F)Cc2cnc3[nH]c(CN4CCOCC4)cc3c21 [pemigatinib]	0.951
CC1=NN(c2ccc(C)c(C)c2)C(=O)/C1=N\Nc1cccc(-c2cccc(C(=O)O)c2)c1O [Eltrombopag] + CCN1C(=O)N(c2c(F)c(OC)cc(OC)c2F)Cc2cnc3[nH]c(CN4CCOCC4)cc3c21 [pemigatinib]	0.921
CCn1c(=O)c2c(nc(/C=C/c3ccc(OC)c(OC)c3)n2C)n(CC)c1=O [Istradefylline] + CCN1C(=O)N(c2c(F)c(OC)cc(OC)c2F)Cc2cnc3[nH]c(CN4CCOCC4)cc3c21 [pemigatinib]	0.909
COC(=O)N[C@@H](C)CNc1nccc(-c2cn(C(C)C)nc2-c2cc(Cl)cc(NS(C)(=O)=O)c2F)n1 + CCN1C(=O)N(c2c(F)c(OC)cc(OC)c2F)Cc2cnc3[nH]c(CN4CCOCC4)cc3c21 [pemigatinib]	0.896
CC#C[C@]1(O)CC[C@H]2[C@@H]3CCC4=CC(=O)CCC4=C3[C@@H](c3ccc(N(C)C)cc3)C[C@@]21C [Mifepristone] + CCN1C(=O)N(c2c(F)c(OC)cc(OC)c2F)Cc2cnc3[nH]c(CN4CCOCC4)cc3c21 [pemigatinib]	0.951
COc1ccc(Cl)cc1C(=O)NCCc1ccc(S(=O)(=O)NC(=O)NC2CCCCC2)cc1 [Glyburide] + CCN1C(=O)N(c2c(F)c(OC)cc(OC)c2F)Cc2cnc3[nH]c(CN4CCOCC4)cc3c21 [pemigatinib]	0.988

— the supplement of paper PMC9588766
